Reference: PubChem BioAssay AID1347165 (National Center for Advancing Translational Sciences (NCATS), 2019)
Hit rate of the full screen: of about 220,000 compounds, about 5,700 (2.6%) were called active. Inconclusive results, whose numbers are uncertain, are shown with a selection of clear calls. Calls come from the whole dose curve; as a rule, active = well fitted inhibition curve with a large enough effect; inconclusive = small, poorly fitted or top-dose-only effect; inactive = no such curve, though single readings can be large or run the other way. Potencies of inconclusive entries are doubtful fits and often do not repeat.

Molecular target: Lysine-specific demethylase 5B (Homo sapiens) (UniProt Q9UGL1)
Experiment: Primary screen for KDM5B Histone Demethylases FDH-coupled qHTS; note: nearly all actives have a fitted effect of over 70% in size; for activity change, negative = inhibition: 0% is about no effect
Settings: FDH-coupled NADH fluorescence (FDH is formaldehyde dehydrogenase); activity change, negative = inhibition: at 57.7 µM (top of the series) unless noted
How it was run: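 Here, H3K4me3 peptide (12.5 µM in substrate mix) is demethylated by KDM5BΔAP, 200 nM final, after 10 min compound exposure. Formaldehyde product is coupled through FDH (0.25 U/mL in mix) to NADH fluorescence; 30-min ΔRFU feeds dose-response curves.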
Potency is the fitted concentration of half-maximal effect; tags give direction and shape of the fitted curve.

Sequence of UniProt Q9UGL1 (Q9UGL1 whole entry, looked up): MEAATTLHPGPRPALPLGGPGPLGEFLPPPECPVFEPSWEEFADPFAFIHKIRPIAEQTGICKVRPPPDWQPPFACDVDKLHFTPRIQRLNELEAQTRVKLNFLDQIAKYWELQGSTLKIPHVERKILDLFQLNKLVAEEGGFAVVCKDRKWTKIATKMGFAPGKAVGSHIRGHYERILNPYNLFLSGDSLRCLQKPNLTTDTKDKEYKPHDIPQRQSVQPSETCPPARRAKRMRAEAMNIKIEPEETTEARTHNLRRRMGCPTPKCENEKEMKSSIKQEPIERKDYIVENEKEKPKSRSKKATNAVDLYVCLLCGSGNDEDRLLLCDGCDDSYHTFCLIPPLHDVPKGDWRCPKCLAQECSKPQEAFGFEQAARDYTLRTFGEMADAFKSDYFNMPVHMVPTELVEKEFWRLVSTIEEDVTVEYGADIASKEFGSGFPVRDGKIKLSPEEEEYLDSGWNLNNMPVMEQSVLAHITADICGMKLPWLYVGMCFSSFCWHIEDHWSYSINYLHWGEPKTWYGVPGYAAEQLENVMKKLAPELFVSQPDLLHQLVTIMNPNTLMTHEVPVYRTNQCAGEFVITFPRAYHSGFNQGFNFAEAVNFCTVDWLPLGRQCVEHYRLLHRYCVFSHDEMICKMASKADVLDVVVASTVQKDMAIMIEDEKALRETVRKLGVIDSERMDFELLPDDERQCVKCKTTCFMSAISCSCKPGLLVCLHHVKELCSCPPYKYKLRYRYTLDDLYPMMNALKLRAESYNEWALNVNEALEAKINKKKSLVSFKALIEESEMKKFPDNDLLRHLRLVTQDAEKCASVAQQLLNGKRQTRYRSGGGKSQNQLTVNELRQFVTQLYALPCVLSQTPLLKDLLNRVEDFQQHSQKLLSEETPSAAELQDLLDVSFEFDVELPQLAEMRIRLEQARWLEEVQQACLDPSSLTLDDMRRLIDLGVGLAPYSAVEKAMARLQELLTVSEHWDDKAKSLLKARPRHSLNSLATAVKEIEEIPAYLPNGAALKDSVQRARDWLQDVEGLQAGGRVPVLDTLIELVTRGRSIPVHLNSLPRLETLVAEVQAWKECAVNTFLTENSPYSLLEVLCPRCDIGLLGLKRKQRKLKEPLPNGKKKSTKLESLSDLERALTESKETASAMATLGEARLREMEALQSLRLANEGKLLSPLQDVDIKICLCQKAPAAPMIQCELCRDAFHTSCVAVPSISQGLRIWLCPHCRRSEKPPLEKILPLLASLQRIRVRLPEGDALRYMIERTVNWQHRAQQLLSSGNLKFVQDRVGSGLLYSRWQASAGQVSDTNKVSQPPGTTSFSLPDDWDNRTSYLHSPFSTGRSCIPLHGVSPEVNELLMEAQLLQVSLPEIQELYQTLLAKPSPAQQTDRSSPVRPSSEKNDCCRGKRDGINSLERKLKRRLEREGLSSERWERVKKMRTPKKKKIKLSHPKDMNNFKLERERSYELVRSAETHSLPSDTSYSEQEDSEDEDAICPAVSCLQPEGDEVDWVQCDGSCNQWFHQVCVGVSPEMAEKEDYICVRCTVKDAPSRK

Row | Structure (SMILES) | activity change, negative = inhibition | Potency
1 | COc1ccc(C(=O)NCC2CCCCC(=O)N2)cn1 (stereo not drawn) | inactive: 7.04% | 
2 | Cc1ccc(Cn2c(C(=O)O)c(CNCc3ccc(C)o3)c3ccc(C)cc32)cc1 |  | inconclusive: 15.8 µM [inhibitor, partial curve, poor fit]
3 | C=C(C)Cn1c(N2CCN(Cc3ccccc3)CC2)nc2c1c(=O)[nH]c(=O)n2C | inactive: 7.89% | 
4 | Cc1ccc(S(=O)(=O)N2CCN(Cc3ccccc3Cl)CC2)cc1 |  | inconclusive: 3.16 µM [inhibitor, full curve, poor fit]
5 | O=C(NCC1CC1)c1cccc(OC2CN(C3CCN(Cc4ccccc4)CC3)C2)c1 | inactive: -14.3% | 
6 | Cc1ccc(NC(=O)Cc2nc(CSc3nncn3-c3cc(C)ccc3C)cs2)cc1 | inactive: 3.08% | 
7 | CC/C(=N\NC(=O)c1ccc(C(C)(C)C)cc1)c1ccccc1 | inactive: 23.3% | 
8 | CC(=O)c1cccc(NC(=O)CN(CCc2ccccc2)S(=O)(=O)c2ccccc2)c1 | inactive: -1.61% | 
9 | CN(C)C(=O)NCC(=O)N1C[C@@H](C(=O)O)[C@H](c2ccc3c(c2)OCO3)C1 | inactive: -20.6% | 
10 | CC(Oc1ccc(Br)cc1)C(=O)N1CCN(c2ccccn2)CC1 (stereo not drawn) |  | inconclusive: 25.1 µM [inhibitor, single point]
11 | Cc1cccc(NC(=O)Nc2ccc(C)n(CC(=O)O)c2=O)c1 |  | active: 20 µM
12 | CC1CCC(N(C)C(=O)c2nn(-c3ccccc3)c(=O)c3ccccc23)CC1 (stereo not drawn) | inactive: 16.2% | 
13 | O=[N+]([O-])c1ccc(N2CCN(S(=O)(=O)c3ccc4ccccc4c3)CC2)c2ncccc12 | inactive: -11.5% | 
14 | CCN1c2cc(C(=O)Nc3cc(C)cc(C)c3)ccc2C(=O)N2CCCCC21 (stereo not drawn) |  | inconclusive: 31.6 µM [inhibitor, partial curve, poor fit]
15 | COc1ccc(-c2c(C)c3ccc(O)c(CN4CCC(C)CC4)c3oc2=O)cc1OC |  | inconclusive: 31.6 µM [inhibitor, partial curve, poor fit]
16 | CC(=O)NCC(=O)N1Cc2ccccc2CC2(CCCN(CC3CCNCC3)C2)C1 (stereo not drawn) |  | inconclusive: 56.2 µM [inhibitor, partial curve, poor fit]
17 | CCCN(CCC)CCCNC(=O)c1cc2c(=O)n(C)c3ccccc3c2s1 |  | inconclusive: 25.1 µM [inhibitor, partial curve, poor fit]
18 | COc1ccc(C(Nc2ccccn2)c2ccc3ccc(C)nc3c2O)cc1C (stereo not drawn) |  | inconclusive: 22.4 µM [inhibitor, partial curve, poor fit]
19 | CC(C)S(=O)(=O)N1CC(Oc2ccc(-c3noc(-c4cccnc4)n3)cc2)C1 |  | active: 28.2 µM
20 | CC1CCN(CCNC(=O)C2CCN(CC(F)(F)F)CC2)CC1 | inactive: -22.6% | 
21 | CCn1cc2nc(SCc3ccccc3Cl)n(Cc3ccc(OC)cc3)c(=O)c2n1 | inconclusive: -32.2% [inhibitor] | 
22 | COc1ccc2c(c1)cc(C(=O)Nc1cccc(C)c1)n2C | inactive: -7.59% | 
23 | COc1cccc(CNC(=O)c2ccc(-c3nc(CSc4ccccc4)c(C)o3)cc2)c1 |  | inconclusive: 10 µM [inhibitor, partial curve, poor fit]

Row | Structure (SMILES) | activity change, negative = inhibition | Potency
24 | CCOc1ccccc1CN1CCN(c2ccc(C#N)cn2)CC1CCO (stereo not drawn) |  | inconclusive: 15.8 µM [inhibitor, partial curve, poor fit]
25 | Cc1ccc(OCC(=O)Nc2ccc3c(C)cc(=O)oc3c2)cc1C |  | inconclusive: 28.2 µM [inhibitor, single point]
26 | CSc1ccccc1C(=O)Nc1c(F)cc(F)cc1Br | inactive: 7.4% | 
27 | C[S+](=O)([O-])N1Cc2ccccc2CC2(CCCN2CC2CCOCC2)C1 (stereo not drawn) |  | inconclusive: 56.2 µM [inhibitor, partial curve, poor fit]
28 | CNC(=O)NC(=O)C(C)Sc1ccc2ccccc2n1 (stereo not drawn) | inactive: 8.2% | 
29 | CN(C(=O)Cn1c(=O)c2c(ncn2C2CCCC2)n(Cc2ccccc2)c1=O)C1CCS(=O)(=O)C1 (stereo not drawn) | inactive: 0.679% | 
30 | COc1cccc(Nc2cnc3ccc(-c4ccc(F)cc4)nn23)c1 |  | inconclusive: 44.7 µM [inhibitor, single point]
31 | Cc1noc(C)c1S(=O)(=O)N(CC(=O)Nc1ccc(F)cc1F)c1ccc(C(C)C)cc1 |  | inconclusive: 28.2 µM [inhibitor, partial curve, poor fit]
32 | COc1cccc(CNC(=O)Cn2ncn3nc(-c4cccs4)cc3c2=O)c1 |  | inconclusive: 15.8 µM [inhibitor, partial curve, poor fit]
33 | O=C(Nc1c(NCC2CCCCC2)c2ccccc2oc1=O)c1cccc(F)c1 | inactive: -2.81% | 
34 | CN1c2cc(C(=O)NCc3ccccc3)ccc2C(=O)N2CCCCC21 (stereo not drawn) |  | inconclusive: 22.4 µM [inhibitor, partial curve, poor fit]
35 | Cc1ccc(-c2cn3c4ccccc4nc3n2CCCN2CCCC2)cc1 |  | inconclusive: 28.2 µM [inhibitor, single point]
36 | COc1ccc(Cn2ccc3nc(C)c(C(=O)Nc4cccc(SC)c4)cc3c2=O)cc1 |  | inconclusive: 35.5 µM [inhibitor, single point]
37 | O=C(O)c1ccccc1C(=O)Nc1ccc(Br)c2cccnc12 |  | inconclusive: 22.4 µM [inhibitor, single point]
38 | COc1ccc(C(=O)NCc2nnc3ccc(-c4ccc(Cl)cc4)nn23)cc1OC |  | inconclusive: 15.8 µM [inhibitor, partial curve, poor fit]
39 | CCN1CCN(c2oc(-c3ccc(COc4ccccc4C)o3)nc2C#N)CC1 |  | inconclusive: 35.5 µM [inhibitor, partial curve, poor fit]
40 | Cc1cccn2c(=O)cc(CN3CCC4(CC3)C(C(=O)O)CC(=O)N4C)nc12 (stereo not drawn) |  | inconclusive: 22.4 µM [inhibitor, single point]
41 | COc1ccc(NS(=O)(=O)c2ccc3c(c2)NC(=O)CS3)cc1 | inactive: -5.04% | 
42 | O=C(Cc1ccc(-c2csc(Nc3ccc(F)cc3)n2)s1)N1CCOCC1 |  | inconclusive: 35.5 µM [inhibitor, single point]
43 | CCN1CCC(N2C[C@@H](COC)[C@H](c3nc(C)no3)C2)CC1 |  | inconclusive: 10 µM [inhibitor, partial curve]
44 | CSc1ccccc1NC(=O)CCS(=O)(=O)c1nc(-c2ccc3c(c2)OCO3)cc(C(F)(F)F)n1 |  | inconclusive: 7.08 µM [inhibitor, partial curve, poor fit]
45 | FC(F)(F)c1ccc2nnc(-c3cc(Br)ccc3OCc3ccccc3)n2c1 |  | inconclusive: 39.8 µM [inhibitor, single point]
46 | CC(C)(C)c1ccc(C(=O)NCC(=O)NC2CCCC2)cc1 | inactive: 17.1% | 

Row | Structure (SMILES) | activity change, negative = inhibition | Potency
47 | Cc1noc(C)c1C(=O)N1CCCCCCn2c(nnc2-c2ccc(F)cc2)CC1 | inactive: -21.9% | 
48 | O=C(c1ccc[nH]c1=O)N1CC(F)(F)C[C@H]1c1nc(C2CC2)no1 |  | inconclusive: 25.1 µM [inhibitor, single point]
49 | CCOc1ccc(S(=O)(=O)c2cn(Cc3ccccc3C)c3cc(OC)c(OC)cc3c2=O)cc1 |  | inconclusive: 39.8 µM [inhibitor, single point]
50 | CN(c1ccccc1)c1ccc2nnc(-c3ccccn3)n2n1 | inactive: 16.6% [at 86.2 µM] | 
51 | O=C(CC1C(=O)NCCN1Cc1cccc(Oc2ccccc2)c1)NCc1ccco1 (stereo not drawn) |  | inconclusive: 10 µM [inhibitor, partial curve]
52 | Cc1ccc(S(=O)(=O)C(CNS(=O)(=O)c2cc(F)ccc2F)c2cccs2)cc1 (stereo not drawn) |  | inconclusive: 15.8 µM [inhibitor, partial curve, poor fit]
53 | N#CC1CCN(C(=O)c2nc(-c3ccc(Cl)cc3)c3ccccn23)CC1 |  | active: 25.1 µM
54 | O=C1NC2(CCN(Cc3ccsc3)C2)COc2ccccc21 (stereo not drawn) |  | active: 35.5 µM
55 | CCN(CC)CCSCCOC(=O)c1oc2ccccc2c1C | inactive: 18.5% | 
56 | COc1ccccc1N1CCN(C(=O)CN2C(=O)COc3ccc(S(=O)(=O)N4CCOCC4)cc32)CC1 |  | inconclusive: 14.1 µM [inhibitor, partial curve, poor fit]
57 | Cc1ccc(C)c(OCC(=O)Nc2ccc(Br)cc2C(=O)O)c1 | inactive: 18% | 
58 | CCOc1ccccc1-c1nc(C2CC(=O)N(c3ccc(C)cc3)C2)no1 (stereo not drawn) |  | inconclusive: 22.4 µM [inhibitor, partial curve, poor fit]
59 | CC(C)c1noc([C@@H]2Cc3nc[nH]c3CN2Cc2ccc(F)cc2)n1 |  | active: 28.2 µM
60 | Cc1ncsc1CN1CCCCC1c1nc(CCOc2ccc(F)cc2)no1 (stereo not drawn) |  | inconclusive: 17.8 µM [inhibitor, single point]
61 | Cc1c(C(=O)NCCN(C)C)oc2c1-c1nn(Cc3cccc(Cl)c3)cc1CC2 |  | inconclusive: 28.2 µM [inhibitor, partial curve, poor fit]
62 | CCOC(=O)c1cc2c(=O)n3ccccc3nc2n(C(C)C)c1=NC(=O)C(C)(C)Oc1ccc(Cl)cc1 |  | inconclusive: 28.2 µM [inhibitor, partial curve, poor fit]
63 | Cc1cc(C)cc(C(=O)NCCn2ccn3nc(-c4ccc(F)cc4)cc3c2=O)c1 | inactive: -12.1% | 
64 | CN(C)c1ccc(Nc2ncnc3c2c(-c2ccccc2)cn3-c2cccc(Cl)c2)cc1 |  | inconclusive: 2.82 µM [inhibitor, full curve, poor fit]
65 | O=C(CSc1ccc2c(c1)OCCCO2)Nc1ccc2c(c1)OCO2 | inactive: 14.4% | 
66 | O=C(NCC1CCCO1)c1cc(S(=O)(=O)N2CCOCC2)c(Cl)cc1Cl (stereo not drawn) | inactive: -2.57% | 
67 | N#CC(C#N)=C1C(=O)N(CCN2CCCCC2)c2ccccc21 |  | inconclusive: 39.8 µM [inhibitor, partial curve, poor fit]
68 | COCCN1CCN(C[C@@H]2C=C(C)[C@H](Cc3nnc(-c4ccc(N(C)C)cc4)o3)C[C@H]2C(C)C)CC1 |  | inconclusive: 14.1 µM [inhibitor, single point]
